Results taken from the supplement of paper PMC3334620.
In all, about 33,000 sequences were measured (“E-score (-0.5 to 0.5)”: median about -0.011, highest 2% from about 0.28 on). The list shows a part of the results.

Target: T1, Gcr1 (UniProt P07261)
T1 sequence: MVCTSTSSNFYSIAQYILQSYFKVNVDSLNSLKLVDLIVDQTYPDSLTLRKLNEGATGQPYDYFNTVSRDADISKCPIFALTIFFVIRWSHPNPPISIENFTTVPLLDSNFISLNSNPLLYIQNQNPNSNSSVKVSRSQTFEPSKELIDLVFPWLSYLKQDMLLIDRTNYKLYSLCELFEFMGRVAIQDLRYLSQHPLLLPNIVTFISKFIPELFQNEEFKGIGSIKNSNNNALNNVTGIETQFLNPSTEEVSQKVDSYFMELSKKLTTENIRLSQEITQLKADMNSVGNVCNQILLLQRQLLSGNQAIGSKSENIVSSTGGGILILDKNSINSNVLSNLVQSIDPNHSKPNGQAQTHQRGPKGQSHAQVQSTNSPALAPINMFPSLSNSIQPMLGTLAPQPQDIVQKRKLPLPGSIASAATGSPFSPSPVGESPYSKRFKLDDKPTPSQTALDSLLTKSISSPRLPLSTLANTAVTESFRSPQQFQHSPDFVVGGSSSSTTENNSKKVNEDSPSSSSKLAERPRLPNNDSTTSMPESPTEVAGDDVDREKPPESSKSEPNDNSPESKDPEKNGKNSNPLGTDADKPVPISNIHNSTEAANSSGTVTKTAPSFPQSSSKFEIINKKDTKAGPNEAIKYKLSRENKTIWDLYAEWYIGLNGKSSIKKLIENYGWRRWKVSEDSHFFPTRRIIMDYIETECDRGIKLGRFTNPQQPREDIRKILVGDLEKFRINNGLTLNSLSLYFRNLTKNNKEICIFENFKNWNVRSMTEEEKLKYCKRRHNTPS
Test: PBM E-score (8-mer binding enrichment) (E-score (-0.5 to 0.5)); higher = stronger / more preferred TF binding; most listed sequences are background and not binding sites
Settings: protein concentration: 100 nM; construct: GST-full length
In short: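 Universal all-10-mer Agilent arrays, double-stranded by primer extension on fresh or once-stripped slides, were probed with about 100-200 nM GST-tagged yeast transcription factors made by PURExpress. Fluorescent anti-GST detected bound protein, and masliner normalised the scans. E-scores from the Universal PBM Analysis Suite were given to each ungapped eight-base word pooled with its reverse complement.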

Point of comparison: GACTAAGA, “PBM E-score” value -0.174. Against it:
- CGTTCAGC — higher, 0.107
- ACCGTCAA — higher, -0.117
- GAATACGC — higher, 0.229
- ACTTCCGA — higher, 0.0686
- CCACCTCC — lower, -0.285
- AACTTGGA — higher, 0.217
- AGGCCCAC — lower, -0.198
- AAGCCGAC — higher, 0.0763
- CCAGCTGG — higher, 0.157
- TCACCGCA — higher, -0.107
- CGTCATAG — higher, -0.0105
- GAACATAA — higher, -0.116
- GGGATGAC — higher, -0.0542
- AGGGCGAC — higher, -0.0863
- AACCGCGA — higher, 0.0746
- AGTAGTGC — lower, -0.194
- GCGGAGAC — higher, -0.0251
- AGCGCGTG — higher, -0.0626
- TCGGGTAA — higher, 0.0973
- CGGCCTGC — lower, -0.303
- GCCTAAAC — higher, 0.167
- GGCGGCAA — higher, 0.154
- ATGGCCGA — lower, -0.205
- TGACACCA — higher, 0.0294
- ATTCCACG — higher, 0.0676
- GTGTCCTA — higher, 0.0134
- GCGAAGAA — higher, 0.0121
- GCAACATA — higher, 0.0275
- AGTGGCGA — higher, 0.156
- CGGAAGCC — higher, 0.451
- GTGTCTGA — higher, 0.0428
- ATGAGGTA — higher, -0.0222
- AAGCGGAT — higher, 0.114
- AAGACGTA — higher, 0.0258
- CTAAATTC — higher, -0.0491
- CGGTTCAC — higher, -0.155
- GGGTACTA — higher, 0.081
- AACGTTAG — higher, -0.0216
- CACTCCTA — higher, -0.103
- ATAAAAAA — higher, 0.185
- CGTGGCGA — higher, 0.017
- TCCGCACA — higher, -0.15
- CGATCCAG — higher, -0.0472
- GTTCGGCA — higher, 0.014
- TAGACTGA — higher, 0.00687
- CTTCTAAA — higher, 0.153
- CTTTTCTA — higher, -0.0632
- AGGTGGAT — higher, -0.0209
- ACGATGAT — higher, -0.0662
- ATCAGTTA — higher, 0.0177
- CGAATCAC — higher, -0.0689
- TAATGGAA — higher, 0.28
- AAAATACC — higher, 0.023
- AAGACCCC — higher, 0.0165
- ACGCTGAG — higher, 0.104
- ACTCACCA — higher, -0.103
- AACCTCGA — higher, 0.023
- CTAAGAGC — higher, 0.0904
- AGCAAGCT — higher, -0.071
- AATCAACC — higher, -0.0152
- AGAAGTGC — higher, -0.157
- AAAAGTAT — higher, -0.0691
- AAGGAACC — higher, 0.285
- ACGGCGTA — higher, 0.0679
- GTGTTCTA — higher, 0.0443
- ATTTGAGA — higher, 0.0566
- CGCCACCG — the same, -0.174
- CAAATCCA — higher, -0.036
- CTGTACGA — higher, -0.0931
- AGTGTGAG — lower, -0.305
- CATGGTTA — higher, 0.0382
- CGAACCCA — higher, -0.0992
- AAACTCTC — lower, -0.251
- ATCTCATC — higher, -0.0285
- AGCCTCAT — higher, -0.0448
- AAGGACTT — lower, -0.182
- AATCACCT — higher, -0.0404
- AGAGCGGA — higher, -0.0441
- GTTTAGGA — higher, 0.177
- ATTGGCGA — higher, 0.0467
- CTTGGATA — higher, -0.00334
- ACCAGTAG — higher, 0.135
- AAGGGTCT — lower, -0.322
- GTCCCTAA — higher, 0.16
- CTCGCAAA — higher, -0.0456
